For 112 molecules, z-score results are on record in PubChem BioAssay AID488969 (Vanderbilt High Throughput Screening Facility, 2010).

Over roughly 110,000 compounds, “z-score” has its median near -0.1; the highest 2% begin near 2. The list shows a part of the results. Activity calls are given as the source filed them.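 The calls were made as follows: active = z-score in the third read window above 3 or below -3; inactive = the rest.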

The target of this experiment is Metabotropic glutamate receptor 8 (Rattus norvegicus) (UniProt P70579). The experiment can be described thus: mGluR8 Gi/Go-coupled signaling modulation – cell-based, rat, thallium flux, HTS, primary screen (AID 488969). Particulars: HEK293 rat mGluR8, GIRK (G protein-gated inwardly rectifying potassium channel) thallium flux, FluoZin2; at 10 µM; stronger effect = higher value; submaximal glutamate (EC20) added with thallium.
UniProt P70579, sequence (P70579 whole entry, looked up): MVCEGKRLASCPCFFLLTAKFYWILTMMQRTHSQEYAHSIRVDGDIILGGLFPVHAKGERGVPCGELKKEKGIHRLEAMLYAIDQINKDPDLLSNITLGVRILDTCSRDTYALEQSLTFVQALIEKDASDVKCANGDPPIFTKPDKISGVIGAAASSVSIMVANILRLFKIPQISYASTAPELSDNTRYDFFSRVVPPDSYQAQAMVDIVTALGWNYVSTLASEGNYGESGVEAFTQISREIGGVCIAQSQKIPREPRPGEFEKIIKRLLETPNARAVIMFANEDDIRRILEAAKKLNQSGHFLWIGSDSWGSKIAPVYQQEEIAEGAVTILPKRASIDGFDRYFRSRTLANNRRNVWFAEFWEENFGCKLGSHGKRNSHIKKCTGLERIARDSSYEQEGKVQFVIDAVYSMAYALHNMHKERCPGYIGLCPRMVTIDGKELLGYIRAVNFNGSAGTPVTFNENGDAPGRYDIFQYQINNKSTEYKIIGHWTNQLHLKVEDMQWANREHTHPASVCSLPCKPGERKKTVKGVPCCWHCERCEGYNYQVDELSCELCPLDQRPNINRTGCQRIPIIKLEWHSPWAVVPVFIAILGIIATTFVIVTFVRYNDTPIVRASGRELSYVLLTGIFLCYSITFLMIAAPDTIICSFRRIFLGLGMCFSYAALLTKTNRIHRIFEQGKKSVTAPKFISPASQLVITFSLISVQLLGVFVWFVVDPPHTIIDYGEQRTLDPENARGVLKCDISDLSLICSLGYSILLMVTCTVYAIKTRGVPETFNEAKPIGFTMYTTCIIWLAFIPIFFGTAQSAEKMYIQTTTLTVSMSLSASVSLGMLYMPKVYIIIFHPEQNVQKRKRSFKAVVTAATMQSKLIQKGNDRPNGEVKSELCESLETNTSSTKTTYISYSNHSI
In turn, `Cc1ccc(C)c(OCCCCn2ccnc2)c1` showed a z-score of 0.0554.
`O=C1C2CCCN2C(c2ccc(F)cc2)N1c1nccs1` (configuration not stated) came in with a z-score of 0.014.
The result for `CC(=O)Nc1ccc(S(=O)(=O)N2CCNC(=O)CC2)cc1` reads 0.155; that for `CCN(CC)S(=O)(=O)c1cccc(-c2nnc(SCC(=O)NC3CCCCCC3)n2N)c1`, -1.15; that for `CCC(C)N1C(=O)S/C(=C/c2ccc(Sc3nc4ccccc4[nH]3)o2)C1=O` (configuration not stated), -0.59.
The result for `Cc1ccc(/C=N/c2sc3c(c2C#N)CCCCC3)o1` reads -0.0448; that for `CC1(C)Cc2c(cnn2-c2ccccc2)C(=O)/C1=N\NC(=O)c1ccccc1`, 0.0883; that for `COc1ccc(N(CC(=O)NCCC2=CCCCC2)S(C)(=O)=O)cc1OC`, 0.274.
The result for `CCOC(=O)c1nn(-c2ccccc2)c(=O)c(C#N)c1C` reads -0.186; that for `Cc1cc(Nc2ccc(C(=O)O)cc2)n2nc(C)nc2n1`, 0.915; that for `CCC(C)NC(=O)CSc1nc2n[nH]c(C)c2c(=N)n1-c1ccc(OC)cc1` (configuration not stated), 0.58.
Turning to `CC1(C(=O)O)CCC(C(=O)N2CCOCC2)C1(C)C` (configuration not stated), the z-score was -0.108.
In turn, `CC(=O)NC1CSCC1OC(C)=O` (configuration not stated) returned a z-score of -0.019.
Molecule `COc1cccc(NS(=O)(=O)c2ccc(NC(C)=O)cc2)c1` gave a z-score of -0.261.
For `CC1CCN(c2nc(-c3ccc(F)cc3)cc(C(F)(F)F)n2)CC1`, the z-score was -0.266.
With `COc1ccc(NC(=O)CSc2nc(NS(=O)(=O)c3ccc(C)cc3)cc(=O)[nH]2)cc1`, the z-score is -0.232.
`O=C(Nc1ccc(S(=O)(=O)N2CCc3ccccc32)cc1)c1ccc2c(c1)OCO2` returned a z-score of -1.01.
The result for `CCOC(=O)Cc1csc(NC(=O)c2c(-c3c(Cl)cccc3Cl)noc2C)n1` reads -0.498; that for `Cc1ccc(N(CC(=O)Nc2ccc(-c3nc4ccc(C)cc4s3)cc2)S(C)(=O)=O)cc1`, -0.0874; that for `NC(=O)C(c1ccc(Cl)cc1)c1ccc(Sc2ccccc2)nn1` (configuration not stated), -0.154.
As to `CC1CC(C)(C)NC(=S)N1CCCC(=O)N1CCN(c2ccccc2F)CC1` (configuration not stated), the z-score turned out to be 0.957.
In turn, `Cc1ccc(S(=O)(=O)Cn2nnnc2C(c2ccccc2)N2CCN(c3ccccc3)CC2)cc1` (configuration not stated) gave a z-score of -0.0633.
The figure for `O=C(Oc1ccc(N(Cc2cccs2)C2=NS(=O)(=O)c3ccccc32)cc1)c1ccco1` is -0.18; for `Cc1ccc(NS(=O)(=O)c2ccc(CCC(=O)N3CCOCC3)cc2)cc1` it is -0.0297; for `CCCCC(=O)OCC(=O)c1[nH]c(C)c(C(=O)OCC)c1C` it is -0.205.
`O=C(O)CN1CCN(Cc2ccccc2Cl)C1=O` had a z-score of -0.0718.
In turn, `O=C(/C=C/c1ccc(Cl)cc1)N(Cc1ccccc1)C1CCS(=O)(=O)C1` (configuration not stated) came in with a z-score of -0.709.
The result for `Cc1cc([N+](=O)[O-])c(NCCCCCCO)c([N+](=O)[O-])c1` reads -0.226.
The molecule `N#CC(=C=[N-])c1nc2ccccc2nc1-[n+]1ccccc1` had a z-score of -0.219.
In turn, `CSc1nnc2c(n1)OC(c1cccn1C)N(C(C)=O)c1ccccc1-2` (configuration not stated) gave a z-score of -0.0952.
The result for `Cn1ncc(Br)c1C(=O)N1CCOCC1` reads -0.293.
The figure for `CC(CC(=O)N1CCc2ccccc21)c1ccccc1` (configuration not stated) is -0.596; for `CCCn1c(NCc2cc(C)ccc2O)nc2ccccc21` it is -0.844; for `O=C1Nc2ccc(S(=O)(=O)N3CCOCC3)c3cccc1c23` it is 0.858.
Molecule `COC(=O)c1ccc(NC(=O)C23CC4CC(C2)CC(n2cncn2)(C4)C3)cc1` displayed a z-score of -0.166.
Regarding `CCOC(=O)N1CCN(C(=O)COc2ccc(Cl)cc2C)CC1`, the z-score was -0.175.
The figure for `N#Cc1c(-c2ccccc2)c(-c2ccccc2)nn(CC(=O)NNC(=O)Nc2ccc(Cl)c(Cl)c2)c1=O` is 0.23; for `NC(=O)c1ccccc1NC(=O)Nc1cccc(Cl)c1Cl` it is -0.0164; for `CC1(C)Cc2noc(N)c2C(C)(C)N1OC(=O)c1cccs1` it is -0.388.
`OC(COCCC12CC3CC(CC(C3)C1)C2)CN1CCCCC1` (configuration not stated) gave a z-score of -0.152.
The result for `O=C(O)CC(NC(=S)NCc1ccccc1)C(=O)O` (configuration not stated) reads -0.297.
On to `Cc1ccc(NC(=O)CSCC(=O)Nc2ncc3c(n2)CC(c2ccco2)CC3=O)cc1` (configuration not stated), for which the z-score is -0.196.
On to `CSCCC(NS(=O)(=O)c1ccc(Cl)cc1)C(=O)OCC(=O)N(C(C)C)C(C)C` (configuration not stated), for which the z-score was -0.294.
As to `CC(C)OCCCNC(=O)C(C)Oc1ccccc1` (configuration not stated), the z-score was -0.305.
`S=C(NCCSCc1ccc(Cl)cc1)Nc1ccccc1` came in with a z-score of 0.852.
The figure for `COc1cccc(C(=O)NC2=NCCS2)c1OC` is -0.64; for `O=C(NCCc1ccccc1)c1nc2nc(-c3cccs3)cc(C(F)(F)F)n2n1` it is -1.35; for `Cc1cc(/C=N/NC(=O)c2ccc(CN3CCOCC3)cc2)c(C)n1-c1ccccc1` it is 0.0571.
On to `CC(C)CCn1c(Oc2ccccc2Cl)nc2c1c(=O)n(C)c(=O)n2C`, for which the z-score is -0.1.
The figure for `CC(C)C(c1nnnn1Cc1ccccc1)N1CCN(Cc2ccco2)CC1` (configuration not stated) is 0.49.
The figure for `CCOC(=O)c1[nH]c(C)c(C(=O)OCC(=O)N2CC(=O)Nc3ccccc32)c1C` is -0.201.
For the molecule `CCN(CC)S(=O)(=O)c1ccc(N2CCOCC2)c(NS(=O)(=O)c2ccc(C(C)C)cc2)c1`, the z-score is -0.0821.
The result for `CCOc1ccc(CCNC(=O)CSCc2ccc(C)cc2)cc1OCC` reads -0.118; that for `Cc1cc(=O)oc(C)c1C(=O)NC1CC(C)(C)NC(C)(C)C1`, 0.378; that for `N/C(=N\OC(=O)COc1ccc(Br)cc1)c1cccnc1`, -0.497.
For `CCOC(=O)Nc1ccc2ncn(C)c(=O)c2c1`, the z-score came to 0.00465.
The result for `O=C(c1cccs1)N1CCCc2ccccc21` reads 0.147; that for `FC(F)(F)c1cccc(Oc2cc(C(F)(F)F)nc(-c3ccccn3)n2)c1`, 0.0345.
`COc1ccc2c(c1)c1nc3ccccc3nc1n2Cc1ccc(OC)c(OC)c1` showed a z-score of -0.548.
`CC1=CC(C)(C)N(S(=O)(=O)c2ccc(F)cc2)c2ccccc21` registered a z-score of 0.525.
The result for `CCOCCCNC(=O)c1cn(C)c(=O)c2cc(OC)c(OC)cc12` reads -0.303.
The figure for `O=C(c1cc(-c2ccc(Cl)cc2)n(-c2ccc(Cl)cc2)n1)N1CCOCC1` is -0.393; for `COc1cccc2cc(C(=O)Oc3ccc(NC(C)=O)cc3)c(=O)oc12` it is -1.16.
`CCOc1ccc(Nc2oc(-c3ccc(Cl)cc3)nc2C#N)cc1` displayed a z-score of -0.151.
The molecule `Cc1nc2cc(NC(=O)CCS(=O)(=O)c3ccccc3)ccc2s1` registered a z-score of 1.07.
The result for `CC(=O)NC(C)C12CC3CC(CC(C(=O)O)(C3)C1)C2` (configuration not stated) reads 0.0652.
The figure for `COc1ccc(/C=N/n2cncn2)cc1COc1ccc(NC(C)=O)cc1` is -0.985; for `COc1cc(OC)cc(C(=O)Nc2nnc(NC(=S)Nc3ccccc3)s2)c1` it is -0.0492.
With `CCOc1ccc(NC(=S)NN2C(C)CCCC2C)cc1` (configuration not stated), the z-score was found to be 1.75.
The figure for `CSc1nc(N(C)NC(=O)c2cccc(C)c2)c2ccccc2n1` is -0.486.
`CCOc1ccc(C(=O)C(c2ccccc2)N2CCOCC2)cc1` (configuration not stated) had a z-score of -0.418.
The figure for `c1ccc(-c2nnc3ccc(N4CCCC4)nn23)cc1` is active: -4.38.
The result for `CNC(=O)Cn1c(=O)n(C)c2ccccc21` reads 0.0314.
As for `Cc1ccccc1NC(=O)CSc1ccc(-c2ccco2)nn1`, the z-score was 1.06.
`Cc1ccc(C2CC(c3ccccc3Cl)n3nc(N)nc3N2)cc1` (configuration not stated) returned a z-score of 0.387.
The figure for `O=C(COc1ccccc1)NC(=S)Nc1cccc([N+](=O)[O-])c1` is active: 11.8.
Molecule `CCC1(C)Cc2ccccc2-c2nc(NCCO)[nH]c(=O)c21` (configuration not stated) displayed a z-score of 0.239.
In the case of `COc1ccc(NC(=O)CSc2nc3ccccc3n2-c2ccccc2)c([N+](=O)[O-])c1`, the z-score is -0.384.
The result for `CNC(=O)CC1C(=O)N(C)C(=S)N1NC(=O)c1ccc(Cl)cc1` (configuration not stated) reads 0.139; that for `CC(=O)Nc1cc(OC(C)=O)c2nonc2c1OC(C)=O`, 0.236.
In turn, `O=C(NCCNS(=O)(=O)c1ccccc1Cl)c1cc(OCC(F)(F)F)ccc1OCC(F)(F)F` displayed a z-score of -0.393.
Molecule `CC(C)OCCCn1c(SCC(=O)N2CCc3ccccc32)nc2ccccc2c1=O` had a z-score of 0.43.
The result for `CCOc1ccc(/C(O)=C/C(=O)C(=O)Nc2ccc(S(=O)(=O)NC(C)=O)cc2)cc1` reads -0.2.
For `O=C(O)CCn1ccnc1-c1ccccc1`, the z-score was determined as 0.126.
The figure for `CC1CCN(C(=O)CCc2ccc(S(=O)(=O)NC(C)C)cc2)CC1` is 0.258; for `CCOc1nc(-c2ccccc2)ccc1-c1noc(-c2ccco2)n1` it is 0.468; for `CCn1c(SCc2ccccc2Cl)nc2ccccc21` it is 0.866.
The result for `Cc1ccnc(SCC(=O)c2cccc([N+](=O)[O-])c2)n1` reads 0.317; that for `CCOC(=O)C1NC(=O)CC1c1ccccc1` (configuration not stated), -0.425.
The result for `Cc1nc([N+](=O)[O-])c(Br)n1CC(=O)c1ccc2ccccc2c1` reads -0.244; that for `N#Cc1cc(-c2ccccc2)cnc1Sc1ccc(Cl)cc1`, -0.124; that for `CSc1nc2ccc(NC(=O)c3ccco3)cc2s1`, -0.436.
`O=C(CN1CCc2[nH]c3ccccc3c2C1)N1CCCCC1` had a z-score of -0.261.
The figure for `Cc1c(-c2ccc(F)cc2)nc(N)c(C#N)c1-c1ccco1` is -0.164; for `COc1ccc(-c2ccc(C#N)c(SCC(=O)OCc3ccccc3)n2)cc1OC` it is -0.104; for `O=C(O)CSc1cccc[n+]1[O-]` it is -0.138.
The result for `COc1ccc2oc(=O)c(C(=O)N3CCc4ccccc43)cc2c1` reads -0.212.
The figure for `CCOC(=O)C1=C(C)NC(=O)NC1c1ccc(Br)o1` (configuration not stated) is 2.92; for `O=C1C=C(Nc2ccccc2O)c2ccccc2C1=O` it is 0.327; for `COC(=O)Nc1nc2c(C)cccc2s1` it is 0.241.
Molecule `O=C(CCN1C(=O)CSC1=O)Nc1ccc(Br)cc1` came in with a z-score of 0.938.
Take `O=C(Cn1nnc(-c2ccccc2Cl)n1)N/N=C/c1ccc(-c2cccc(Cl)c2)o1`: the z-score was -0.0407.
The result for `COc1ccc(CCNc2cc(C)nc3c(-c4ccc(Cl)cc4)cnn23)cc1OC` reads -0.051.
The result for `COc1ccc(-c2nc3c(c4nnc(SC(C)C(=O)Nc5ccccc5)n24)COC(C)(C)C3)cc1` (configuration not stated) reads -0.351.
`O=C(CCn1ccc([N+](=O)[O-])n1)NC1CCCCCC1` showed a z-score of 0.235.
`O=C1CCCC2=C1C(c1ccc(Cl)cc1)N1C(=O)CCSC1=N2` (configuration not stated) came in with a z-score of -0.142.
The figure for `C=C(C)Cn1c(CCNC(=O)CC)nc2ccccc21` is -0.285.
The result for `c1ccc(CCNc2nc(-c3cccnc3)cs2)cc1` reads -0.023.
As for `COc1ccc(N2CC(C(=O)OCC(=O)NCc3ccccc3)CC2=O)cc1` (configuration not stated), the z-score was -0.103.
The molecule `Cc1ccc(-c2c3c(=O)n(C)c(=O)n(C)c3cn2CCCN2CCOCC2)cc1` had a z-score of 0.228.
Turning to `Cc1ccc(C2(C)NC(=O)N(CC(=O)NCCC3=CCCCC3)C2=O)cc1` (configuration not stated), the z-score is -0.168.
`Cn1c(SCC(=O)Nc2cc([N+](=O)[O-])ccc2F)nnc1C(F)(F)F` gave a z-score of 0.166.
